Data published in PubChem BioAssay AID651820 (National Center for Advancing Translational Sciences (NCATS), 2012).
Hit rate of the full screen: of about 340,000 compounds, about 12,000 (3.5%) were called active. Inconclusive results, whose numbers are uncertain, are shown with a selection of clear calls. Calls follow the shape of the dose curve; as a rule, active = well fitted inhibition curve with a large enough effect; inconclusive = small, poorly fitted or top-dose-only effect, or another doubt; inactive = no such curve, though single readings can be large or run the other way. No potency is given beside an inconclusive call; the fits are too rough.

assay: qHTS Assay for Inhibitors of Hepatitis C Virus (HCV); conditions: Huh7.5.1 HCVcc-Cre (HCVcc is cell-culture hepatitis C virus) infection, luciferase reporter, 44 h; series mostly up to 41.8 µM
How it was run: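 A cell-based infection assay in which seeded cells (1,000 per well) receive test compound after 4 h, are inoculated with HCVcc-Cre at approximately 0.5 moi, and are incubated 44 h before luminescence detection.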
Potency is read from the fitted curve at half-maximal effect; tags tell the direction and shape of the fitted curve.

SMILES | Potency
Cc1cc([N+](=O)[O-])nn1CC(=O)NCc1nc2ccccc2[nH]1 | inactive
O=[N+]([O-])c1ccc(Nc2nc(NCCO)nc(N3CCCC3)n2)cc1 | inconclusive [inhibitor, full curve]
NC(=O)NCc1cccnc1 | inactive
COC(=O)C1=C(C)N=C2SC(C)C(=O)N2C1/C=C/c1ccccc1 (stereo unspecified) | inconclusive [inhibitor, single point]
CCOC(=O)C1(CCCc2ccccc2)CCN(C(=O)C2=C(C)OCCO2)CC1 | inconclusive [inhibitor, single point]
Cc1ccc(OCC(=O)N2CCCCC2C)c([N+](=O)[O-])n1 (stereo unspecified) | inactive
Cc1ccc(Cl)cc1NC(=O)c1ccc(CSc2nnnn2C)cc1 | inconclusive [inhibitor, single point]
COc1ccc([N+](=O)[O-])cc1NC(=O)C(C)OC(=O)CN1C(=O)C2CC=CCC2C1=O (stereo unspecified) | inconclusive [inhibitor, single point]
Brc1ccccc1OCCCCCN1CCOCC1 | inconclusive [inhibitor, single point]
COc1ccc(C(=O)Nc2ccc(S(=O)(=O)N3CCCC3)cc2)cc1 | inconclusive [inhibitor, partial curve, poor fit]
Cc1cccc(N2CCN(C(=O)CCS(=O)(=O)c3ccc4c(c3)NC(=O)CO4)CC2)c1C | inconclusive [inhibitor, single point]
CCOC(=O)C(C)n1cnc2sc3c(c2c1=O)CCC3 (stereo unspecified) | inactive
COc1ccc(CCNc2nnc(Sc3nnnn3-c3ccccc3)s2)cc1OC | active: 14.1 µM
Cc1cccc(-c2nc(N)nc(N)n2)c1 | inactive
CCn1ncc(C2=NOC(C(=O)Nc3cccc(C(C)=O)c3)C2)c1C (stereo unspecified) | inconclusive [inhibitor, partial curve]
C/C(=N\NC(=S)NC(C)C)c1ccc(C(C)(C)C)cc1 | inconclusive [inhibitor, single point]
CCN1CCC(O)(/C=C/c2ccc(C(C)C)cc2)C(C(=O)/C=C/c2ccc(C(C)C)cc2)C1 (stereo unspecified) | active: 7.94 µM
N#C/C(=C\c1ccc(O)c(O)c1)C(=O)Nc1ccccc1 | inconclusive [inhibitor, partial curve, poor fit]
Cc1ccc(C(=O)Nc2ccc(C(=O)N/N=C/c3ccccn3)cc2)cc1 | inconclusive [inhibitor, partial curve]
CCCCn1c(N)c(N(CCOC)C(=O)COC(=O)c2ccccc2NCCO)c(=O)[nH]c1=O | inactive
O=C(Nc1ncccc1O)c1cccc(S(=O)(=O)NCc2ccccc2)c1 | inactive
COc1cc2cnc(-c3cccnc3)cc2cc1OC | inactive
COc1ccccc1NS(=O)(=O)c1cc(NC(=O)c2ccccc2[N+](=O)[O-])ccc1N1CCOCC1 | inconclusive [inhibitor, partial curve]
CCOc1ccccc1C1NC(=O)NC(C)=C1C(=O)OC1CCCCC1 (stereo unspecified) | inactive
c1ccc(CN=C2NN=C(c3ccccc3)CS2)cc1 | inconclusive [inhibitor, single point]
Cc1ccc(/C=N/n2c(COc3ccccc3)n[nH]c2=S)cc1 | inconclusive [inhibitor, single point]

SMILES | Potency
COc1c(CC=C(C)C)cc(C2CC(=O)c3c(O)cc(O)cc3O2)cc1CC=C(C)C (stereo unspecified) | inconclusive [inhibitor, single point]
CCc1ccc(-c2nc(CN3CCCC(C(=O)NCCc4ccc(OC)c(OC)c4)C3)c(C)o2)cc1 (stereo unspecified) | active: 8.91 µM
CCCn1c(C)cc(C(=O)COC(=O)c2ccc(Cl)c(S(=O)(=O)N3CCCC3)c2)c1C | inconclusive [inhibitor, single point]
CCCCNCc1cc(Br)c(OCC(=O)NCc2ccccc2)c(OC)c1 | inconclusive [inhibitor, single point]
Cc1ccc(S(=O)(=O)N(CC(=O)Nc2ccccc2-c2ccccc2)c2ccc(C)cc2C)cc1 | inconclusive [inhibitor, single point]
COc1cccc(NC(=O)c2ccc(CN3CCc4ccccc4C3)cc2)c1 | active: 1 µM
CCc1cccc(C)c1Nc1nc2ccccc2n2cnnc12 | inconclusive [inhibitor, single point]
CN1CCN(c2ccccc2NC(=O)c2ccc(F)cc2)CC1 | inactive
COC(=O)C(=O)C/C(=N/Nc1ncnc2ccccc12)c1ccc(Cl)cc1 | inconclusive [inhibitor, partial curve]
Oc1c(C(Nc2cccc(C(F)(F)F)c2)c2cccnc2)ccc2cccnc12 (stereo unspecified) | active: 11.2 µM
Cc1ccc(S(=O)(=O)NCCC(=O)Nc2nnc(C3CC3)s2)cc1C | inactive
CCC1CN(C(=O)NCc2cccc(OC)c2)c2ccccc2O1 (stereo unspecified) | inconclusive [inhibitor, partial curve]
CCN(CC)S(=O)(=O)c1ccc(N2CCOCC2)c(NS(=O)(=O)c2ccc(C)c(C)c2)c1 | inconclusive [inhibitor, single point]
CC(C)(O)C#Cc1ccc(C(=O)N2CCCC(CNS(=O)(=O)c3cccs3)C2)o1 (stereo unspecified) | inactive
O=C1/C(=C/c2cccs2)Cc2ccccc21 | inactive
O=c1oc2c3c4c(cc2c2c1CCC2)OCCN4CCC3 | inconclusive [inhibitor, single point]
Cc1ccc(CNCCCSc2ncccn2)cc1 | inactive
O=C(NCc1ccccc1)c1ccccc1 | inactive
CC(C)Nc1nc(NC(C)C)nc(SCCOC(=O)Nc2ccc(Cl)cc2Cl)n1 | inconclusive [inhibitor, single point]
Cc1oc(-c2ccccc2F)nc1CS(=O)(=O)CC(=O)NCCCN1CCN(C)CC1 | inactive
O=C(NCCCN1CCOCC1)c1ccc(-n2nc(C(F)(F)F)cc2-c2cccs2)cc1 | inconclusive [inhibitor, single point]
COC(=O)C1=C(C)NC(C)=C(C(=O)OC)C1c1ccc(-c2cccc(Cl)c2Cl)o1 | inconclusive [inhibitor, single point]
COc1ccc(CCNC(=O)COC(=O)Cn2cnc3c2c(=O)n(C)c(=O)n3C)cc1 | inactive
CCN(CC)CCOc1ccc(C=NNc2nc3c([nH]2)c(=O)n(C)c(=O)n3C)cc1 | inactive
Fc1ccc(CNC(=S)Nc2ccc(Cl)cc2Cl)cc1 | inactive
CC1CCCCN1CC(=O)Nc1ccc(N2CCCCCC2)cc1 (stereo unspecified) | inconclusive [inhibitor, partial curve, poor fit]

SMILES | Potency
COc1ccccc1NC(=O)c1cc(C(=O)Nc2ccccc2OC)n(C)n1 | inconclusive [inhibitor, full curve]
Cc1cc(=O)[nH]c(N2CCCC2)n1 | inactive
Cc1c(C(=O)OCC(=O)N2C(C)CCCC2C)oc2ccccc12 (stereo unspecified) | inconclusive [inhibitor, partial curve]
CCOc1ccc(CN2CCNC(=O)C2CC(=O)NCCCn2ccnc2)cc1 (stereo unspecified) | inactive
CCN(CC)CCNC(C(=O)Nc1cc(C(F)(F)F)ccc1Cl)c1ccccc1 (stereo unspecified) | inactive
Cc1cc2c(cc1C)CSC(c1c(O)ccc3ccccc13)SC2 | inconclusive [inhibitor, single point]
Cn1c(SCC(=O)Nc2ccc(NC(=O)c3cccs3)cc2)nnc1-c1ccncc1 | inconclusive [inhibitor, single point]
CC(C)CN(C(=O)c1ccc(Br)o1)C1CCS(=O)(=O)C1 (stereo unspecified) | inconclusive [inhibitor, single point]
CCOc1ccc(C(=O)Nc2c(C(N)=O)oc3ccccc23)cc1 | inconclusive [inhibitor, single point]
Cn1nc(C(F)(F)F)c(C#N)c1N1CCN(c2ccccn2)CC1 | inactive
O=C(CC(C(=O)O)c1ccc(F)cc1)c1ccc(Cl)cc1 (stereo unspecified) | inactive
CC(=O)Nc1cccc(NC(=O)CSc2ncc(-c3ccccc3)[nH]2)c1 | inactive
c1ccc(Cn2nnnc2C(c2ccncc2)N2CCOCC2)cc1 (stereo unspecified) | inactive
Cc1cccc(C)c1NC(=O)CSc1ncnc2[nH]ncc12 | inactive
COc1cc(/C=C/C(=O)OCC(=O)NCc2ccco2)ccc1O | inconclusive [inhibitor, single point]
CC(=O)Nc1ccc2nc(NC(=O)C(Cl)(Cl)Cl)sc2c1 | inactive
O=C1N[C@@H](c2ccccc2)COC(=O)[C@H](Cc2ccc(F)cc2)C/C=C\C[C@@H]1CC(=O)N(CCO)Cc1ccccc1 | inconclusive [inhibitor, single point]
CCOc1cc2[nH]c(=O)n(Cc3ccc(C(=O)NCCCN4CCC(C)CC4)cc3)c(=O)c2cc1OCC | inconclusive [inhibitor, single point]
Cc1cccc(NC(=S)NNC(=S)NCc2ccccc2)c1 | inconclusive [inhibitor, single point]
O=C(O)C1CCN(S(=O)(=O)N2CCOCC2)CC1 | active: 22.4 µM
CC(=O)NC(c1ccccc1)c1c(O)ccc2ccccc12 (stereo unspecified) | inactive
S=C(NCc1cccs1)NCC1CCCO1 (stereo unspecified) | inactive
Cc1ccc2c(Cl)cc(Cl)c(OCC(=O)Nc3cccc(S(N)(=O)=O)c3)c2n1 | inconclusive [inhibitor, partial curve]
CN(C)S(=O)(=O)c1ccc(Cl)c(C(=O)NC2CCCCCCC2)c1 | inconclusive [inhibitor, single point]
